Out of some 48,000 compounds screened, about 120 (0.25%) were called active. Inconclusive results (about 4%) are left out. Calls follow the shape of the dose curve; as a rule, active = well fitted activation curve with a large enough effect; inconclusive = small, poorly fitted or top-dose-only effect, or another doubt; inactive = no such curve, though single readings can be large or run the other way. The list shows a part of the results.
Assay: Primary qHTS for Identification of Small Molecule Activators of Huntingtin-Antisense Promoter Activity; also: nearly all actives have a fitted effect of over 55% in size
Details: HEK293 HTT-AS promoter firefly luciferase reporter, 24 h; series mostly up to 57.5 µM; activity change, positive = activation: at the top concentration
Summary of the method: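 Quantitative HTS used concentration series of up to 57.5 uM final on HEK293 luciferase reporter cells, 24 h at 37 degrees C. Readout was Dual-Glo firefly luminescence.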

Activity change, positive = activation, inactive:
CC(=O)Nc1ccc(Nc2nc3c(S(=O)(=O)c4cc(C)ccc4C)nnn3c3ccsc23)cc1 -7.73%
COC(=O)c1ccc(Nc2nc(-c3ccccc3Cl)nc3ccccc23)cc1 -38.5%
Clc1cccc(-c2nc3ccccn3c2Nc2ccc3c(c2)OCCO3)c1 -19.1%
COc1ccc(N2C(=O)CSC23C(=O)N(CC(=O)Nc2ccccc2F)c2ccccc23)cc1 (stereo not drawn) -16.9%
Cc1[nH]cnc1CN1CCc2c(c3ccccc3n2C)C1=O -4.22%
Cc1cccc(C(=O)Nc2cc3nn(-c4ccc(C(C)C)cc4)nc3cc2C)c1 -0.0457%
Cc1ccc(N(C)S(=O)(=O)c2ccc(-c3coc(C)n3)cc2)cc1 -20.9%
Cc1cccc(-c2noc(-c3ccc(NCc4ccccc4)c([N+](=O)[O-])c3)n2)c1 2.91%
CC1=C(c2ccc(C)c(C)c2)S(=O)(=O)N=C1N1CCC(C(=O)NCc2ccccc2C)CC1 -20.5%
O=C(O)CCc1ccc(NCc2cccc(Oc3ccccc3)c2)cc1 -53.3%
Cc1ccc(NC(=O)CN2C(=O)COc3ccc(S(=O)(=O)N4CCOCC4)cc32)cc1N(C)C -3.5%
COc1ccccc1N1CCN(CCCNC(=O)c2nnc(Cc3ccc(F)cc3Cl)o2)CC1 -29.8%
CCc1nc2ccc(C(=O)N3CCN(c4cc(C)ccc4C)CC3)cc2nc1CC -19.6%
CC1=C(C(N)=O)C(c2cccc(Br)c2)n2nc(SCc3ccccc3Cl)nc2N1 (stereo not drawn) -6.04%
Cc1cc(C)c2oc(-c3ccc(NC(=O)COc4ccccc4C)cc3)nc2c1 18.5%
CCOc1ccc(CCNC(=O)c2cc3sccc3n2CC)cc1OCC -45.4%
Fc1ccc(CSc2nncn3c2cc2occc23)c(Cl)c1 -1.82%
Cc1nn(CC(=O)NCCc2ccccc2)c(=O)c2nn(-c3ccccc3)c(C)c12 7.57%
COc1cc(C2C(C(=O)Nc3ccc(Cl)cc3)=C(C)Nc3nc(SC)nn32)cc(OC)c1OC (stereo not drawn) -11.1%
CC(C)c1ccccc1Cc1cc(C(=O)Nc2ccc(S(=O)(=O)c3ccccc3C(C)(C)C)cc2)c(O)c(O)c1O -36.4%
Cc1ccc(-n2nc3c(N4CCC(C(=O)NC5CCCCC5)CC4)nnc(C)c3c2C)cc1 -12.9%
Cc1cc2oc(C(=O)Nc3ccc(S(=O)(=O)N4CCC(C)CC4)cc3)cc(=O)c2cc1C 18.5%
CC(C)Cc1ccc(S(=O)(=O)NCc2nc3cccnc3n2Cc2ccccc2)cc1 -31.7%
COc1ccc(-n2ncc(C(=O)N3CCN(C(=O)c4ccco4)CC3)c2C2CCN(C(=O)OC(C)(C)C)CC2)cc1 -3.9%
COc1ccc(-c2ccc(CNCCCSc3nnnn3C)o2)cc1Cl -13.3%
Cc1ccc(/C=C/C(=O)N2CCC(c3nc4ccccc4o3)CC2)cc1 -17%
CCOC(=O)Cc1c(C)nc2cc(-c3ccc(C(C)(C)C)cc3)nn2c1C 26.1%
CCc1ccc(NC(=O)C2CCCN2S(=O)(=O)c2ccc3nc(-c4ccccc4)[nH]c3c2)cc1 (stereo not drawn) -31.9%
Cc1ccc(NC(=O)c2c3c(nc4ccccc24)C(=O)N(C2CCCCC2)C3)cc1F 0.752%
Cc1ccccc1NC(=O)CC1NCCNC1=O (stereo not drawn) -2.93%
C=CCc1ccccc1OCc1nc2ccc(C)cc2[nH]1 2.52%
COc1ccc(-n2ncc(C(=O)N3CCN(C4CCCCC4)CC3)c2C2CCN(C(=O)OC(C)(C)C)CC2)cc1 -11.6%
CCOC(=O)c1c(NC(=O)CSc2nc(-c3ccc(OC)cc3)cc(C(F)(F)F)n2)sc(C)c1C 5.14%
Cn1c(=O)n(CC(=O)O)c(=O)c2c1nc1n2CCCN1c1ccc(Cl)cc1 4.72%
CCN(CC)S(=O)(=O)c1ccc2c(c1)c(=O)c(C(=O)NCCc1ccccc1)cn2C 6.22%
COc1ccc(C2CC(=O)c3cnc4c(-c5ccc(F)cc5)c(C)nn4c3C2)cc1OC (stereo not drawn) -2.09%
COc1cc(CN(C(=O)Nc2cccc(Cl)c2)c2ccccn2)cc(OC)c1OC -7.51%
COC(=O)c1nnn(CC(=O)Nc2c(C)cccc2C)c1N -14.6%
Cc1cc2nc3c(=O)[nH]c(=O)nc-3n(C[C@H](O)[C@H](O)[C@H](O)CO)c2cc1C -0.0913% [at 25.1 µM, percent change from vehicle, -100% = no light]
CC(C)Nc1nc2c(S(=O)(=O)c3cccc(Cl)c3)nnn2c2ccsc12 -18.6%
Cc1ccc(C(=O)NCC(c2cccs2)S(=O)(=O)c2ccccc2)cc1C (stereo not drawn) -26.7%
CC(=O)c1cccc(NC(=O)CCn2nc(C)c(S(=O)(=O)N(C)C)c2C)c1 -28%
CC(C)CCNC(=O)c1ccc2nc(CCc3ccccc3)oc2c1 12.1%
CC(C)c1ccc(S(=O)(=O)N2CCN(CC(=O)Nc3ccccc3C(F)(F)F)CC2)cc1 17.3%
CCOC(=O)c1c(C)oc2nc(C)nc(NCCc3ccc(OC)c(OC)c3)c12 -11%
COC(=O)c1sc(N2C(=O)c3oc4ccc(C)cc4c(=O)c3C2c2ccc(O)c(OC)c2)nc1C (stereo not drawn) -14%
CCCCC(CC)CNC(=O)CCCCn1c(=O)[nH]c2ccsc2c1=O (stereo not drawn) -14.3%
COC(=O)c1ccc(C(=O)OC)c(NC(=O)c2c(-c3ccccc3)noc2C)c1 -32.5%
COc1ccc(CCNc2nc(SCc3ccccc3F)nc3ccccc23)cc1OC -2.81%
CCC(=O)N1CCc2cc(CNS(=O)(=O)c3ccc(C(C)C)cc3)ccc21 -30.6%
CC(=Cc1ccccc1)C=C1SC(=S)N(CC(=O)O)C1=O 19.5%
Cc1nn(-c2ccccc2)c2sc(C(=O)Nc3cccc(Cl)c3)cc12 -28.3%
CCOC(=O)c1c(NC(=O)/C=C/c2ccc(OCC)cc2)sc(C(C)=O)c1C -0.84%
COc1cc2nc(NCCc3ccccc3)n3nc(-c4cccnc4)nc3c2cc1OC -14.6%
Cc1ccc(C)c(N2CCN(C(=O)CCS(=O)(=O)c3cc(Br)cc4c3N(C(=O)C3CC3)CC4)CC2)c1 -19.4%
COc1cc(NC(=O)CCc2c(C)nc3c(-c4ccc(F)cc4)c(C)nn3c2C)cc(OC)c1OC -7.56%
COc1ccc(CNC(=O)C(Cc2ccccc2)NS(=O)(=O)c2ccc3c(c2)CCN3C(C)=O)cc1 (stereo not drawn) -9.12%
CCCSc1ncc(Cl)c(C(=O)N2CCN(c3cccc(Cl)c3)CC2)n1 -40.9%
CCOc1ccc(NC(=O)CC2C(=O)N(c3ccc(OC)cc3)C(=O)N2C2CCCCC2)cc1 (stereo not drawn) -12.4%
CCOc1ccc(NC(=O)CC2C(=O)N(c3ccccc3)C(=O)N2C2CCCC2)cc1 (stereo not drawn) -14.4%
Cc1ccc(CNC(=O)Cn2nc(N3CCN(c4ccccc4)CC3)ccc2=O)cc1 -21%
Cc1cccc(N2CCN(C(=O)c3cnn(-c4ccc(F)cc4F)c3C3CCN(C(=O)OC(C)(C)C)CC3)CC2)c1C -34%
COc1ccc(-n2c(SCC(=O)NCc3ccco3)nc3c([nH]c4ccccc43)c2=O)cc1 -25.3%
CCOc1ccccc1NC(=O)c1cc2cc3cc(C)ccc3nc2s1 16.2%
CCCn1c2ccccc2c2cnn(CC(=O)N(CC)c3cc(C)ccc3C)c(=O)c21 -33.8%
CCCNC(=O)CSc1c2c(nc3ccc(Cl)cc13)CCCC2 -4.25%
CCOC(=O)c1cc2c(=O)n3ccccc3nc2n(Cc2ccco2)c1=NC(=O)c1cccc(C)c1 -3.73%
Cc1ccc(NC(=O)CSc2nc3ccccc3c(=O)n2CCC(=O)NC2CCCCC2)cc1C -1.7%
Cc1cccc(N2CCN(C(=O)C3CCN(S(=O)(=O)c4c(C)noc4/C=C/c4ccccc4F)CC3)CC2C)c1 (stereo not drawn) 13.7%
Cc1ccc(NC(=O)Nc2cn(C)c(=O)c3ccccc23)c(Cl)c1 -32.1%
Cc1ccc2oc(=O)c3cnn(CC(=O)N4CCN(c5ccccc5F)CC4)c3c2c1 -4.75%
Cc1ccc(C2C=C(c3ccccc3)Nc3nc(NS(=O)(=O)c4ccc(C)cc4)nn32)cc1 (stereo not drawn) -11.3%
Cc1cc(=O)n(Cc2ccccc2)c2c1c(C)nn2-c1ccccc1 -4.77%
CCc1ccccc1NC(=O)c1ccc(Cn2nc(N3CCN(c4ccccc4)CC3)ccc2=O)o1 -42.4%
Cc1nc2c3ccccc3nc(NNC(=O)CCC(=O)N3CCN(c4cc(Cl)ccc4C)CC3)n2n1 -16.8%
CCc1cccc(NC(=O)CSc2nc3ccccc3nc2N2CCCCC2)c1 -31%
COc1cccc(NC(=O)c2sc3nc(C)c(C(=O)Nc4ccc(C)cc4C)c(-c4ccco4)c3c2N)c1 0%
COc1ccc(OCC(=O)Nc2cccc(C(=O)OCc3cc(=O)n4nc(C)sc4n3)c2)cc1 -9.8%
CNC(=O)CCCN1C(=O)CCn2nc(-c3cn(C)c4ccccc34)cc21 -15.6%
CCC1CN(C(=O)NCc2ccc(F)cc2)c2cc(Cl)ccc2O1 (stereo not drawn) -26.4%
COc1ccc(C2CC(=O)c3cc(-c4nc(-c5ccc(C)cc5)cs4)c(=O)[nH]c3C2)cc1 (stereo not drawn) -5.68%
CC(C)c1ccc(NC(=O)Cc2ccc(NC(=O)N3CCCCc4ccccc43)cc2)cc1 -15.8%
CCOC(=O)c1c(C)[nH]c(C)c1S(=O)(=O)N(C)CC(=O)NCc1ccc(C)cc1 -8.72%
CCOc1cccc(CNC(=O)c2ccc(N3CCCC3)c(NC(=O)Nc3ccccc3CC)c2)c1 -24.9%
COc1ccc(NC(=O)C2CCCN(S(=O)(=O)c3c(C)[nH]c(=O)[nH]c3=O)C2)cc1 (stereo not drawn) -0.681%
CCCCOc1ccc(CNC(=O)CN2C(=O)CCn3nc(-c4cn(C)c5ccccc45)cc32)cc1 -32.9%
COc1cc(OC)c(NC(=O)CC(C)S(=O)(=O)c2ccc3c(c2)NC(=O)CO3)cc1Cl (stereo not drawn) -10.5%
COc1ccc(S(=O)(=O)NCCc2csc(-c3cccc(F)c3)n2)cc1OC -23.8%
CCn1cc(S(=O)(=O)c2ccc(OC)cc2)c(=O)c2cc(F)c(N3CCCCCC3)cc21 -12.1%
COc1ccc(-c2nn(-c3ccc(C)c(Cl)c3)c3c2cnc2cc(OC)c(OC)cc23)cc1 0.618%
Nc1nc(Nc2cccc(Cl)c2)sc1C(=O)c1ccc(F)cc1 -13.8%
CCOc1ccc(/C=C/C(=O)Nc2sc3c(c2C(=O)OC)CCCC3)cc1 4.1%
O=C(CSc1ncc2c(n1)-c1cc(Cl)ccc1N(Cc1ccccc1)S2(=O)=O)NCCc1ccccc1 -10.4%

Reference: PubChem BioAssay AID1508624 (National Center for Advancing Translational Sciences (NCATS), 2021)
